Measured values taken from article PMC4336329 (PLoS ONE, 2015).
Hit rate of the full screen: of about 310,000 compounds, about 14,000 (4.5%) showed an effect of 50% or more. Effects have a minus sign here. The list shows a part of the results.

biological target: human ether-à-go-go-related gene (hERG) potassium channel (human, UniProt Q12809); experiment: primary screen, population patch clamp on CHO cells stably expressing hERG
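Note: peak tail current of the secondary pulse compared with the same well before compound.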

Chain of human ether-à-go-go-related gene (hERG) potassium channel (Q12809 whole entry, looked up): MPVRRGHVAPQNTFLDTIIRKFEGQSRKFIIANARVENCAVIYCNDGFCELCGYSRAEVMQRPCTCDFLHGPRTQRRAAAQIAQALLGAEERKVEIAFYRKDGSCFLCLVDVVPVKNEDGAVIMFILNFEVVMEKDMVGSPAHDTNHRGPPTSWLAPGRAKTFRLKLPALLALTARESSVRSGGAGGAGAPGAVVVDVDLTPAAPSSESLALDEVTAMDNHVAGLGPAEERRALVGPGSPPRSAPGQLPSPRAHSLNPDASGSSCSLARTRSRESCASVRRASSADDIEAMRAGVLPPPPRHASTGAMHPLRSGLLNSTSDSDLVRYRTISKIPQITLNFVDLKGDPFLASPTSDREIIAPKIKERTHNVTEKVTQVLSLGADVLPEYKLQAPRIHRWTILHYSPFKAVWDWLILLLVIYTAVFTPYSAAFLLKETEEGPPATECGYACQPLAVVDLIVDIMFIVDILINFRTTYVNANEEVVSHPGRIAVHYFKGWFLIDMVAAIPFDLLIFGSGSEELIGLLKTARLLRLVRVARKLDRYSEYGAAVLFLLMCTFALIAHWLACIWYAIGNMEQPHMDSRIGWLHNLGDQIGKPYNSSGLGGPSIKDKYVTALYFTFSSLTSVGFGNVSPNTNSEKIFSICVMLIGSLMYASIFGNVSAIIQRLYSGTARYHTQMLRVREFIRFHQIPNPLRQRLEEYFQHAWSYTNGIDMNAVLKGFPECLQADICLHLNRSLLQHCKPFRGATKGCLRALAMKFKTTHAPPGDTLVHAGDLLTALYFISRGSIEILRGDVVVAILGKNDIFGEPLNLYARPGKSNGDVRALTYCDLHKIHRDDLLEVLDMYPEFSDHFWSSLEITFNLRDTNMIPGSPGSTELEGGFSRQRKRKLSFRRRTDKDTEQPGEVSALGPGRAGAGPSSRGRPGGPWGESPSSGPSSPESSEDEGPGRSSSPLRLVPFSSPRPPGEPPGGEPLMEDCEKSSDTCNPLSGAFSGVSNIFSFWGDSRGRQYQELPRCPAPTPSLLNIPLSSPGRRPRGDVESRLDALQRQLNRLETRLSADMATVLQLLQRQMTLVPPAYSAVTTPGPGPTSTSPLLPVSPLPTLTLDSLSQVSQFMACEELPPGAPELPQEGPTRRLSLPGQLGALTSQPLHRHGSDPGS

SMILES	hERG current change (%, negative = inhibition) at 10uM
O=C1CSC(c2ccncc2)N1Cc1ccc(F)cc1 (centres unmarked)	1.53%
Cc1cccc(NS(=O)(=O)c2ccc(C(=O)NCC3(N4CCCCC4)CCCCC3)cc2)c1C	-48.8%
CC(=O)c1sc(NC(=O)C2CSC3(C)CCC(=O)N23)nc1-c1ccccc1 (centres unmarked)	-5.06%
Cc1cc(C)c(NS(=O)(=O)c2c(C)noc2C)c(C)c1	-0.686%
COc1ccc(/C=C/C=C2\NC(=S)NC2=O)cc1	22.1%
O=C(CSc1ncn[nH]1)Nc1ccc2c(c1)OCCO2	-26.9%
CCC(=Nc1cccc(C(F)(F)F)c1)c1c(O)n(C)c(=O)n(C)c1=O	4.97%
Cc1ccc(-c2csc(NC(=O)CSc3nc4ccccc4o3)n2)cc1	14.2%
CCc1nc2cccnc2n1-c1ccc(CC(=O)O)cc1	12.9%
O=C(COC(=O)C1CCN(c2ccc(C(F)(F)F)cn2)CC1)c1cccc(Br)c1	22.7%
O=C(COC(=O)CCC(=O)c1cccs1)Nc1cccc(S(=O)(=O)N2CCOCC2)c1	-20.6%
NS(=O)(=O)c1ccc(NN=C2CCCCC2)c([N+](=O)[O-])c1	9.16%
O=C(c1cccs1)N1N=C(c2ccc(O)cc2)CC1c1ccccc1 (centres unmarked)	3.42%
O=C(COC(=O)C12CC3CC(CC(C3)C1)C2)NCCc1ccccc1	-10.1%
O=C(Nc1nc2ccc(F)cc2s1)c1cccs1	14.3%
CCNc1nc(SCc2ccccc2)nc(N2CCOCC2)n1	-48.8%
O=C1CCCCC1	10.5%
COc1cc2c(cc1NC(=O)c1ccccc1F)CCCC2	17.5%
Cc1ccc(-c2cc(-c3ccc(C)cc3)[n+](-c3ccc(C(=O)O)cc3)c(-c3ccc(C)cc3)c2)cc1.[O-][Cl+3]([O-])([O-])[O-]	26.5%

SMILES	hERG current change (%, negative = inhibition) at 10uM
CCOc1ccc(OCC(=O)OCC(=O)N(CC(C)C)c2c(N)n(Cc3ccccc3)c(=O)[nH]c2=O)cc1	-4.66%
CCOC(=O)c1ccc(NCc2ccc(N(C)C)cc2)cc1	10.3%
Cc1ccc(-c2cc(C(=O)NCc3ccccn3)no2)cc1	0.477%
CN(C)c1ccc(/C=N/NC(=O)CCCO)cc1	24.4%
NS(=O)(=O)c1cc2c(cc1Cl)NC(c1ccccc1OCC(=O)O)NS2(=O)=O (centres unmarked)	19%
Cl.O=C(CCN1CCC(c2ccccc2)C1)c1ccccc1 (centres unmarked)	-35.8%
CNc1cc([N+](=O)[O-])ccc1N/C=C/C(=O)c1ccc2c(c1)OCO2	0.518%
CCCCN1C(=O)c2cccc3cc(O)cc(c23)C1=O	-4.44%
O=C(CCO)c1ccc(O)cc1	10.6%
COc1ccc(/C=N/NC(=O)c2ccc(OC)c(OC)c2)cc1COc1c(F)c(F)c(F)c(F)c1F	5.91%
CC(NC(=O)Cc1ccsc1)c1ccc(S(N)(=O)=O)cc1 (centres unmarked)	7.74%
O=C(Nc1cccc(S(=O)(=O)N2CCCC2)c1)c1cccnc1	6%
CCn1c2ccccc2c2cc(NC(=O)CC(C)=O)ccc21	-3.43%
NC(=O)CSc1nc2ccccc2n1Cc1ccccc1F	-19.5%
CC(C)N(C(=O)Cn1cc(S(=O)(=O)CC(=O)N2CCOCC2)c2ccccc21)C(C)C	1.25%
Cc1ccc(C2C(C(=O)c3ccco3)=C(O)C(=O)N2c2nnc(C)s2)cc1 (centres unmarked)	-0.374%
CC12C=CC3(CN(Cc4ccccc4)C(=O)C3C1C(=O)NC1CC1)O2 (centres unmarked)	15.7%
O=C(NCCCN1CCOCC1)c1cc2ccccc2oc1=O	-24.4%
COc1cc(/C=N/Nc2ccc(Cl)cc2)ccc1OC(=O)c1cccs1.Cl	24.6%

SMILES	hERG current change (%, negative = inhibition) at 10uM
O=C(N/C(=C/c1ccc(Br)cc1)c1nc2ccccc2[nH]1)c1ccco1	0.607%
C/C(=N\O)C(C)(C)NC(=O)Nc1ccc(Cl)cc1	8.73%
COC(=O)C1CCN(C(=O)Cn2nnc(-c3cccc(F)c3)n2)CC1	13.2%
N#C/C=C/C(=C\Nc1ccc(Cl)cc1)S(=O)(=O)c1ccccc1	15.5%
CCOC(=O)c1[nH]c(C)c(C(=O)c2cc(F)ccc2F)c1C	-10%
COC(=O)[C@]1(C)C[C@H]1[C@H](NP(=O)(c1ccccc1)c1ccccc1)c1ccccc1	-45.6%
CCN1CCN(C(c2cccc(OC)c2)c2sc3nc(C)nn3c2O)CC1 (centres unmarked)	19.7%
O=C(O)Cn1cc(/C=N/NC(=O)c2cc3cc(Br)ccc3o2)c2ccccc21	0.739%
Cc1cc(C)c(S(=O)(=O)N2CCN(C(=O)c3ccc4c(c3)OCO4)CC2)c(C)c1	-31.4%
O=S(=O)(Oc1ccccc1C(=S)N1CCOCC1)c1ccc(Cl)cc1	3.56%
CN(C)c1ccc(C2C3=C(CCCC3=O)OC3=C2C(=O)CCC3)cc1	17%
CCCCN(C1CCS(=O)(=O)C1)S(=O)(=O)c1ccc(OC)c(OC)c1 (centres unmarked)	-3.24%
Cc1ccccc1N1CCN(C2CCCN(C(=O)c3noc4c3CCCC4)C2)CC1 (centres unmarked)	-63.5%
COCC(C)NS(=O)(=O)c1ccc(C)cc1 (centres unmarked)	3.16%
OCc1cn(-c2ccccc2)nc1-c1ccc(-c2nn(-c3ccccc3)cc2CO)cc1	14%
CCCOC(=O)c1ccc(OCC(O)CN2CCN(C(=O)c3ccccc3)CC2)cc1.Cl (centres unmarked)	-73.7%
Cc1cc(=O)oc2cc(OC(C)C(=O)Nc3ccc(N4CCOCC4)cc3)ccc12 (centres unmarked)	-1.31%
CC(C)CCNC(=O)C(=O)NC1CCCC1	0.31%
